The list shows a part of the results. Read counts after selection give these values, which scatter widely. Each score is taken over the longer molecules that contain the sequence shown.
Columns and labels:
Assay in all cases: 6-mer SELEX enrichment z-score vs GST control; IMP3 is the RNA-binding protein IGF2BP3; higher = more enriched by binding
IMP3 KH1-4 = conditions: construct: KH1-4 (164-579); SELEX round: R4
Procedure: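 SELEX-seq with GST-tagged IMP3 KH1-4 (Pro164-Lys579) and an N40 RNA pool, round 4. 6-mer z-score of sequence-tag enrichment normalised to the corresponding GST SELEX round; RNA k-mers written as DNA (T for U).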

IMP3 RRM1-2 = conditions: construct: RRM1-2 (1-163); SELEX round: R2
IMP3 RRM1-2, sequence (chain, as listed by the source): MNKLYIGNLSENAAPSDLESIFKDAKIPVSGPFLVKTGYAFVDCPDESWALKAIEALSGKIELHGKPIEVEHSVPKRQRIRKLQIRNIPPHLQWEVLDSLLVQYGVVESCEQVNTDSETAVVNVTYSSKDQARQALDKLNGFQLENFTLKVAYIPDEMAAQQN
Procedure: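 SELEX-seq with GST-tagged IMP3 RRM1-2 (Met1-Asn163) and an N40 RNA pool, round 2. 6-mer enrichment z-score normalised to GST SELEX. RNA written as DNA (T = U).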

IMP3 KH3-4 = conditions: construct: KH3-4 (377-579); SELEX round: R4
IMP3 KH3-4, sequence (chain, as listed by the source): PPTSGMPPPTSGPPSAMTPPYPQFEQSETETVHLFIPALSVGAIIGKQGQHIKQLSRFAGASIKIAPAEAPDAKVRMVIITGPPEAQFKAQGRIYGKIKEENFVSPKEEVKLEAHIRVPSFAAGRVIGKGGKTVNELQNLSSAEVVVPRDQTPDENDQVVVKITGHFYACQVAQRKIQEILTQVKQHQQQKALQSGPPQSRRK
Procedure: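 SELEX-seq with GST-tagged IMP3 KH3-4 (Pro377-Lys579) and an N40 RNA pool, round 4. 6-mer z-score of sequence-tag enrichment normalised to the corresponding GST SELEX round; RNA k-mers written as DNA (T for U).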

IMP3 KH1-2 = conditions: construct: KH1-2 (164-376); SELEX round: R4
IMP3 KH1-2, sequence (chain, as listed by the source): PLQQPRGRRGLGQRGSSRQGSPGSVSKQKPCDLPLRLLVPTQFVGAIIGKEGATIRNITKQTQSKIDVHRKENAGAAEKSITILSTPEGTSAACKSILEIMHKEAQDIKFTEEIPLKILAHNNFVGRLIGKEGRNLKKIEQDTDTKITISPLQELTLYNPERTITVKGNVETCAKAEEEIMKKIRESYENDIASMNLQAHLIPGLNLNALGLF
Procedure: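 SELEX-seq with GST-tagged IMP3 KH1-2 (Pro164-Phe376) and an N40 RNA pool, round 4 (stringent 300/600 mM KCl washes). 6-mer z-score of sequence-tag enrichment normalised to the corresponding GST SELEX round; RNA k-mers written as DNA (T for U).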

IMP3 full-length = IMP3 full-length (UniProt O00425); conditions: construct: FL IMP3 (1-579); SELEX round: R4
UniProt O00425, sequence (O00425 whole entry): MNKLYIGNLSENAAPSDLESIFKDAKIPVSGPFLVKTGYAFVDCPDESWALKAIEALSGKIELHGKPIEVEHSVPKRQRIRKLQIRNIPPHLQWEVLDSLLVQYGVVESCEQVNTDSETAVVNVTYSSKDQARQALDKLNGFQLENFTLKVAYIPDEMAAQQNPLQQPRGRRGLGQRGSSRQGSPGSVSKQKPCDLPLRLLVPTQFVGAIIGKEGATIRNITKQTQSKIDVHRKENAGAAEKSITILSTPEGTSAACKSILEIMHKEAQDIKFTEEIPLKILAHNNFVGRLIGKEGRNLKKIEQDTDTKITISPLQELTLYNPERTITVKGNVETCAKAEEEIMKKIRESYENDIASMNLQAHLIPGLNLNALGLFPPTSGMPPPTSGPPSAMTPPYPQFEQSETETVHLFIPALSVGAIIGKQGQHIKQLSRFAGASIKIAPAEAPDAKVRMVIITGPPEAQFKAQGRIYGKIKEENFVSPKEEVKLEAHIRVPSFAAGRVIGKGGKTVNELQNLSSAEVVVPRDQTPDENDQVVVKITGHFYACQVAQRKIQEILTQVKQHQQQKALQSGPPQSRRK
Procedure: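 SELEX-seq with GST-tagged full-length IMP3 and an N40 RNA pool, round 4. Each 6-mer is scored as an enrichment z-score of sequence tags containing it, normalised to the matching GST SELEX round. RNA written as DNA (T = U).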

IMP3 KH1-4, sequence (chain, as listed by the source): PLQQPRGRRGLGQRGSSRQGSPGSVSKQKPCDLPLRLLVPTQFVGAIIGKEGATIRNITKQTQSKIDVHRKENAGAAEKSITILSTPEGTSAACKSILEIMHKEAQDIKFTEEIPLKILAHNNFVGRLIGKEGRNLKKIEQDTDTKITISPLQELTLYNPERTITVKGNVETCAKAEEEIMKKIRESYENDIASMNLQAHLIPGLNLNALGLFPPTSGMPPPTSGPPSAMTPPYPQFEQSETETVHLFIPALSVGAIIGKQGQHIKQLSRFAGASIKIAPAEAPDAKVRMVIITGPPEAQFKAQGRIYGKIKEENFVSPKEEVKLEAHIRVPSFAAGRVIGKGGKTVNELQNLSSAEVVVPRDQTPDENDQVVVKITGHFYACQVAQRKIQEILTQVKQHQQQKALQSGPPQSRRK

Row | Sequence | 6-mer SELEX enrichment z-score (IMP3 KH1-4) | 6-mer SELEX enrichment z-score (IMP3 RRM1-2) | 6-mer SELEX enrichment z-score (IMP3 KH3-4) | 6-mer SELEX enrichment z-score (IMP3 KH1-2) | 6-mer SELEX enrichment z-score (IMP3 full-length)
1 | AACAAA | -0.093 | -0.243 | 1.06 |  | 
2 | AAGCGA | -1.82 | -1.11 | -1.57 | -1.81 | 
3 | TGAGCA | -1.23 | 0.125 | -1 | -1.13 | 
4 | TTCATG | 0.976 | 0.777 | 0.859 | 0.841 | 
5 | CTATCC | -0.528 | -0.187 | -0.703 | -0.429 | 
6 | TCATAG | 0.609 | 1.08 | 0.546 | 0.454 | 
7 | TTGTGG | 0.297 | 0.321 | 0.444 | 0.194 | 
8 | GCGCTA | -0.413 | 0.092 | -0.206 | -0.355 | 
9 | TGTCTG | -0.062 | 0.239 | -0.025 |  | 
10 | CTAGAC | -0.627 | -0.473 | -0.703 |  | 
11 | CTGAGC | -3.14 | -0.254 | -2.91 | -2.97 | 
12 | GGCCCT | -0.185 | -0.092 | -0.28 | -0.112 | 
13 | TTAAAG | 0.181 | -0.642 | 0.848 | -0.01 | 
14 | AGCGCT | -1.07 | 0.041 | -0.816 |  | 
15 | ACGCCT | -0.709 | -0.371 | -0.927 | -0.685 | 
16 | GCTGTT | 0.06 | 0.311 | 0.114 | 0.116 | 
17 | TAGAGC | -2.09 | -0.052 | -1.71 | -1.91 | 
18 | TTTGAT | 0.708 | 0.109 | 1.03 |  | 
19 | GTGCTG | 0.194 | 0.115 | 0.109 | 0.14 | 
20 | GAGTAG | -0.462 | 0.003 | -0.238 | -0.374 | 
21 | GAATTT | 0.77 | -0.378 | 1.26 | 0.577 | 

Row | Sequence | 6-mer SELEX enrichment z-score (IMP3 KH1-4) | 6-mer SELEX enrichment z-score (IMP3 RRM1-2) | 6-mer SELEX enrichment z-score (IMP3 KH3-4) | 6-mer SELEX enrichment z-score (IMP3 KH1-2) | 6-mer SELEX enrichment z-score (IMP3 full-length)
22 | TCACTG | 0.761 | 0.793 | 0.256 | 0.535 | 
23 | ACGCGT | -2.07 | -0.048 | -1.65 |  | 
24 | GATTGT | 0.269 |  | 0.476 | 0.156 | -0.116
25 | TCACGA | -0.729 |  | -0.82 | -0.762 | 0.064
26 | CCCTTT | 0.59 |  | 0.054 | 0.405 | -0.173
27 | CGTGCT | -0.328 |  | -0.252 | -0.261 | -0.011
28 | TGGTAT | -0.157 |  | 0.067 | -0.078 | 0.015
29 | GCTCGA | -1.11 |  | -0.796 | -0.886 | -0.276
30 | TGTTCA | 0.593 |  | 0.501 | 0.45 | 0.379
31 | GGTGGG | 0.739 |  | 0.803 | 1.01 | 0.596
32 | TGTCCA | 0.162 |  | -0.27 | -0.051 | -0.228
33 | GGATTC | 0.398 |  | 0.379 | 0.274 | 0.284
34 | AATTTT | 1.09 |  | 2.01 | 1.24 | 0.11
35 | GAGAGT | -0.266 |  | -0.211 | -0.322 | -0.289
36 | GGCATT | 0.437 |  | 0.4 | 0.276 | 1.07
37 | CTGTCG | -0.033 |  | -0.075 | -0.011 | 0.311
38 | TAGTTC | -0.137 |  | -0.034 | -0.105 | -0.014
39 | CTCCCT | 0.03 |  | -0.399 | 0.046 | -0.447
40 | ATCACG | 0.33 |  | -0.006 | 0.069 | 1.38
41 | GCCAAT | 0.108 |  | 0.157 | 0.064 | 0.085
42 | TCACCG | 0.017 |  | -0.612 | 0.134 | 0.652

Row | Sequence | 6-mer SELEX enrichment z-score (IMP3 KH1-4) | 6-mer SELEX enrichment z-score (IMP3 RRM1-2) | 6-mer SELEX enrichment z-score (IMP3 KH3-4) | 6-mer SELEX enrichment z-score (IMP3 KH1-2) | 6-mer SELEX enrichment z-score (IMP3 full-length)
43 | ATAAGA | 1.39 |  | 2.4 | 1.24 | -0.196
44 | GGATTT | 0.611 |  | 0.884 | 0.557 | 0.159
45 | ATACCG | -0.01 |  | -0.211 | 0.167 | -0.146
46 | CCTTGC | -0.803 |  | -0.909 | -0.703 | -0.649
47 | TGTTGT | 0.191 |  | 0.267 | 0.063 | -0.028
48 | AAGCCA | -0.536 |  | -0.815 | -0.574 | -0.642
49 | AGAGTA | -0.429 |  | -0.071 | -0.389 | -0.291
50 | ATTTGG | 0.1 |  | 0.38 | 0.069 | 0.068
51 | TCGGAG | -0.218 |  | -0.114 | -0.228 | 0.202
52 | CAATCA | 0.849 |  | 0.473 | 0.91 | 3.01
53 | GTGGCC | 0.111 |  | -0.144 | 0.1 | 0.253
54 | ATTGCG | -0.26 |  | -0.061 | -0.344 | -0.2
55 | TACCCA | -1.7 |  | -2.08 | -1.72 | -1.29
56 | TGGCGG | 0.521 |  | 0.665 | 0.567 | 0.77
57 | TAACTT | 0.88 |  | 1.16 | 0.965 | -0.084
58 | CCTTGA | -1.29 |  | -1.36 | -1.29 | -1.27
59 | TTTTTT | 0.901 |  | 1.47 | 0.979 | 0.472
60 | TACCGT | -0.155 |  | -0.35 | -0.168 | -0.122
61 | TTAAAA | 0.288 |  | 1.43 | 0.124 | -1.2

From the supplement of paper PMC6531468
